# Data published in the supplement of paper PMC10126150.
# Values marked as one replicate rest on one cluster of the flow cell; about a third of the high ones do not repeat.
# Tested on: ATP
# Test: switch fluorescence ratio, 500 uM ATP over buffer (Cy3 cluster intensity, sum of 5 cycles each) (fold (ratio)); higher = stronger signal-on switching upon ATP binding; sequences stand for … in TCGTCGGCAGCGTCAGATGTGTATAAGAGACAGTTTTTTTTTTTTTTTTTTTTTTTTT…TC
# Conditions: aptamer strand: ATP DNA aptamer (quencher-CACCTGGGGGAGTATTGCGGAGGAAGG + anchor), 100 nM annealed; ATP concentration: 500 uM; one replicate
# In short: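 The fluorescence ratio divides summed target-cycle Cy3 intensity by summed buffer-cycle Cy3 intensity for each cluster and is averaged per switch-domain sequence. Cy3-labelled switching-strand clusters on a modified Illumina MiSeq flow-cell were annealed to 100 nM quencher-labelled ATP aptamer, then imaged in selection buffer and again after 15 min with 500 uM ATP at 22 °C. Five such cycles were run, with NaOH stripping and re-annealing between them, and clusters outside 100-1000 RFU were excluded.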
# 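Also: ATP exposure 15 min at 22 °C before imaging.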
row,Sequence,switch fluorescence ratio
1,CACTTAACAC,1.18
2,CACTTACAG,1.16
3,CACTTATAGA,1.08
4,CACTTCTCTT,0.994
5,CACTTCTGGG,0.995
6,CACTTGAGTT,0.971
7,CACTTTTCAA,0.997
8,CAGAAATGTG,1.01
9,CAGAACGGGG,0.957
10,CAGAAGGGCT,1.06
11,CAGAATCGCG,1.01
12,CAGAATCGG,0.959
13,CAGAATTAAG,0.999
14,CAGAATTCGC,0.977
15,CAGACATGTG,1.06
16,CAGACATTCA,1.03
17,CAGACCGCAT,4.68
18,CAGACTTCGC,1.12
19,CAGACTTGGA,1.06
20,CAGAGATCTT,0.983
21,CAGAGCATTG,1.15
22,CAGAGCTCGA,0.973
23,CAGAGCTCGG,1.02
24,CAGAGGA,0.973
25,CAGAGGATTT,0.949
26,CAGAGGCGGG,1.02

row,Sequence,switch fluorescence ratio
1,CAGATGGTCC,1.03
2,CAGATGTGGT,0.983
3,CAGATTCGGG,1
4,CAGATTGAGC,0.987
5,CAGATTTGAC,0.992
6,CAGATTTGGT,1.03
7,CAGCAAAACG,2.2
8,CAGCAAACGT,1.43
9,CAGCAATTTG,1.26
10,CAGCACAAG,1.05
11,CAGCACCCAC,1.58
12,CAGCAGCCGT,1.03
13,CAGCATAACG,1.2
14,CAGCATGTAC,4.05
15,CAGCCAGGC,1.02
16,CAGCCTTGAC,1.1
17,CAGCGAGGCA,1.04
18,CAGCGATGGT,1.11
19,CAGCGATGTA,0.964
20,CAGCGCTTAT,1.04
21,CAGCGTCCGG,1.01
22,CAGCGTCTCA,1.01
23,CAGCTAAGTT,0.968
24,CAGCTACAGC,0.999
25,CAGCTACGTA,0.979
26,CAGCTAGGAT,0.993

row,Sequence,switch fluorescence ratio
1,CAGCTGACC,1.07
2,CAGCTTATAA,1.12
3,CAGCTTCTTC,1.08
4,CAGCTTTATC,1.09
5,CAGCTTTGGC,0.959
6,CAGGAACTAC,1.09
7,CAGGACCAAG,0.991
8,CAGGACGAAT,1.03
9,CAGGACTTT,0.959
10,CAGGAGCATA,4.6
11,CAGGAGGAAA,0.97
12,CAGGAGGGTT,0.975
13,CAGGAGTCGA,1.06
14,CAGGATCTTT,1
15,CAGGATGGAC,0.994
16,CAGGCAGGAG,1.02
17,CAGGCATGC,1.07
18,CAGGCCGGTG,1.04
19,CAGGCCTACT,1.04
20,CAGGCGAATG,0.974
21,CAGGCGACCA,1.05
22,CAGGCGCGGT,1.08
23,CAGGCGCTTT,1.1
24,CAGGCGTTGG,0.949
25,CAGGCTCTTA,1.02
26,CAGGCTTGTG,1.03

row,Sequence,switch fluorescence ratio
1,CAGGCTTTGT,0.963
2,CAGGGACATA,1.02
3,CAGGGACTTT,0.947
4,CAGGGAGCGA,0.993
5,CAGGGATCTA,0.985
6,CAGGGATGTC,1.04
7,CAGGGCCTCC,1.01
8,CAGGGGCTGC,0.973
9,CAGGGGGACA,1.01
10,CAGGGTAGCA,0.987
11,CAGGTAGGC,1.05
12,CAGGTATCTA,1
13,CAGGTCATCC,0.971
14,CAGGTCCTCT,1.01
15,CAGGTCGGGA,0.971
16,CAGGTTCTTA,1.03
17,CAGGTTGGCT,1.02
18,CAGTAAGTTA,0.955
19,CAGTAATATC,2.3
20,CAGTACATTC,1.05
21,CAGTACTTCA,1.11
22,CAGTAGCGAT,5.88
23,CAGTATACTG,1.04
24,CAGTCAAACA,1.01
25,CAGTCACAAA,0.978
26,CAGTCACAGA,0.983

row,Sequence,switch fluorescence ratio
1,CAGTCAGGCC,1.02
2,CAGTCCAGCA,1.11
3,CAGTCCTGCT,0.974
4,CAGTCGTAGC,0.986
5,CAGTCGTCTA,1.01
6,CAGTGAGTGC,0.941
7,CAGTGATTCG,1.01
8,CAGTGCTCTT,0.988
9,CAGTGGCCCT,1
10,CAGTGGTTCC,1.08
11,CAGTGTAAGT,0.988
12,CAGTGTGCTG,1.09
13,CAGTGTTGCG,1
14,CAGTTAAACT,1.07
15,CAGTTAACCC,1
16,CAGTTAGGCC,0.992
17,CAGTTCCCAT,1.04
18,CAGTTCTTTT,0.935
19,CAGTTTTCAC,0.976
20,CATAAACGTC,1.02
21,CATAAACTAA,1.03
22,CATAAAGAAC,0.992
23,CATAAAGTAC,1.22
24,CATAACCAGG,1.43
25,CATAACCGCC,1.63
26,CATAAGCATC,1.36

row,Sequence,switch fluorescence ratio
1,CATAAGCGGA,1.02
2,CATAAGGGTA,1.02
3,CATAAGTGTG,1.02
4,CATAAGTTTT,0.999
5,CATACAGAAA,0.982
6,CATACAGGCG,1.07
7,CATACCGATT,1.02
8,CATACGGCAT,1.06
9,CATACTAAAG,1.07
10,CATACTTCTT,1.05
11,CATACTTTGT,1.01
12,CATAGAAAAG,0.96
13,CATAGAAATA,1.02
14,CATAGCGTGC,1.11
15,CATAGGATTA,0.979
16,CATAGGCGCG,0.934
17,CATAGGGGAT,0.98
18,CATAGTGGCG,0.966
19,CATAGTGGTG,0.998
20,CATAGTTAGC,1.05
21,CATATAATAT,0.983
22,CATATCAGGT,0.97
23,CATATCCCGT,0.974
